Not every entry of the source has a single result; some have several. This list holds those alone. An entry can have further records. Values that stand side by side repeat one measurement across runs, samples, wells, individuals or studies.
Tested on: KRAS patient-derived spheroids with HUVEC/MSC, viability
Assay: Anticancer human tumor 519858-162-T-J1-PDC patient-derived colon adenocarcinoma cell line growth inhibition [KRAS2]
Details: stronger effect = lower value
From the text: Multicellular complex tumor spheroid response to RAS pathway inhibitors in combination with a targeted agents in patient-derived cell lines with oncogenic KRAS variants from multiple cancer types
A high-throughput screen of multi-cell type tumor spheroids was designed to identify active combinations of targeted small molecules and KRAS pathway inhibitors. Complex spheroids include a stromal component modeled by human endothelial cells (HUVEC) and fibroblasts modeled by human mesenchymal stem cells (MSCs). The concentration ranges selected for each drug and investigational agent were based upon clinically achievable concentrations if the clinical Cmax of the agent was known.
Compounds. The drugs and investigational agents: BI-3406 (NSC825286), BAY-293 (NSC824723), batoprotafib (TNO155; NSC825523), sotorasib (AMG 510; NSC818433), MRTX1257 (NSC819558), elimusertib (BAY 1895344; NSC800525), molibresib (GSK525762; NSC774829), temuterkib (LY3214996; NSC803410), venetoclax (NSC766270), alisertib (NSC759677), olaparib (NSC753686), talazoparib (NSC767125), erdafitinib (NSC781556), ipatasertib (NSC767898), cabozantinib (NSC761068), nintedanib (NSC756659), abemaciclib (NSC768073), docetaxel (NSC628503), trametinib (NSC758246), and sapanisertib (NSC764658) were obtained from the National Cancer Institute (NCI) Developmental Therapeutics Program Chemical Repository. The FDA-approved anticancer drug set is available from the Developmental Therapeutics Program. […] The stock solutions were prepared in dimethyl sulfoxide (DMSO, Sigma-Aldrich, St. Louis, MO, cat. D2650) at 800-fold the tested concentration and stored at -70 degrees C prior to their use. All drugs and investigational agents were tested over a range starting from a high concentration at or near the clinical Cmax and decreasing in half-log increments. If the clinical Cmax for an agent had not been determined, the highest concentration tested was 10 microM.
Cell Culture. All cells were maintained in an incubator at 37 degrees C and 5% CO2 with 95% humidity. The PDC lines were cultured according to standard operating procedures established by the NCI PDMR (https://pdmr.cancer.gov/sops/default.htm). Briefly, all PDCs were thawed and cultured in Matrigel-coated flasks prepared with a working solution of 1X Ham's F-12 nutrient mix, without supplementation (Invitrogen, Waltham, MA, cat. 11765054), 100 U/mL penicillin-streptomycin (Invitrogen, cat. 15140122), and 2.5% Matrigel (Corning Inc., Corning, NY, cat. 354248) for the first three passages. All PDCs were cultured in complete DMEM/F-12 media containing advanced DMEM/F-12 (Invitrogen, cat. 12634028), 4.9% defined fetal bovine serum, heat inactivated (HyClone Laboratories Inc., Logan, UT, cat. SH30070.03HI), 389 ng/mL hydrocortisone (Sigma-Aldrich, cat. H4001), 9.7 ng/mL human EGF recombinant protein (Invitrogen, cat. PHG0313), 23.4 microg/mL adenine (Sigma-Aldrich, cat. A2786), 97.3 U/mL penicillin-streptomycin (Invitrogen, cat. 15140122), 1.9 mM L-glutamine (Invitrogen, cat. 25030081), and 9.7 microM Y-27632 dihydrochloride (Tocris Bioscience, Bristol, United Kingdom, cat. 1254). The PDCs were cultured in complete DMEM/F12 media without 9.7 microM Y-27632 dihydrochloride for at least two passages prior to the screen. The established cell line HOP-62 was cultured in RPMI 1640 medium, HEPES (Invitrogen, cat. 22400105) with 10% defined fetal bovine serum (HyClone Laboratories Inc., cat. SH30070.03) and 2 mM L-glutamine (Invitrogen, cat. 25030081). The pooled donor HUVEC were cultured in endothelial cell growth medium 2 (PromoCell, Heidelberg, Germany, cat. C-22011) and the hMSC were cultured in mesenchymal stem cell growth medium 2 (PromoCell, cat. C-28009). For all experiments, HUVEC and hMSC were used at passages </=5, while the malignant cell lines were used at passages </=15. […]
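Further: compound exposure lasted seven days before readout; 100% = DMSO vehicle control viability.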

SMILES	viability, T/C (compound alone 0.0316 µM)	viability, T/C (compound alone 0.1 µM)	viability, T/C (compound alone 0.316 µM)	viability, T/C (compound alone 3.16 µM)	viability, T/C (compound alone 10 µM)	viability, T/C (compound alone 0.000316 µM)	viability, T/C (compound alone 0.001 µM)	viability, T/C (compound alone 0.00316 µM)	viability, T/C (compound alone 0.01 µM)	viability, T/C (compound alone 1 µM)
CCNC(=O)CC1N=C(c2ccc(Cl)cc2)c2cc(OC)ccc2-n2c(C)nnc21 (centres undefined)	93.7, 105, 100, 71.2, 84.3%	99.8, 78.8, 70.6, 85.2, 82.6%	69.3, 75.1, 104, 66.2, 84.4%	48, 48.5, 54.7, 21.8, 48.1%	35.3, 28.3, 40.8, 6.83, 25.1%					
Cn1ncnc1[C@H]1c2n[nH]c(=O)c3cc(F)cc(c23)N[C@@H]1c1ccc(F)cc1	88.1, 78.2, 86.4, 77.2, 106%	72.3, 65, 96.2, 91.3, 90.4%				96.2, 78, 98.2, 78.3, 108%	102, 77.9, 80.7, 82.1, 111%			
CN(C)C/C=C/C(=O)Nc1cc2c(Nc3ccc(F)c(Cl)c3)ncnc2cc1O[C@H]1CCOC1	119, 101, 83.7, 88.5, 64.1%					83.7, 100, 76.7, 113, 84.2%	87.3, 94.4, 95.9, 88.2, 63.1%	93.2, 88, 114, 94.8, 98.8%	88.3, 108, 77.4, 107, 88.9%	
COc1cc2nccc(Oc3ccc(NC(=O)C4(C(=O)Nc5ccc(F)cc5)CC4)cc3)c2cc1OC	111, 99.8, 93.2, 71.7, 99.4%	98.7, 123, 117, 94.8, 94.4%		83, 125, 120, 108, 122%	107, 117, 144, 76.7, 152%					104, 92.4, 98.7, 68.1, 85.9%
CC(C)n1nc(-c2ccc3oc(N)nc3c2)c2c(N)ncnc21	82.4, 51.9, 68.4, 73.5, 85.6%	58.9, 50.8, 48.9, 70.1, 84.2%				74, 83, 103, 91, 104%		69.5, 82.4, 107, 75.8, 92.8%	71.8, 63.8, 60.6, 88.2, 97.7%	

From PubChem BioAssay AID1963872 (Molecular Pharmacology Branch, DTP, NCI, 2024)
